From publication PMC4336329 (PLoS ONE, 2015)
Screen size: about 310,000 compounds; about 14,000 (4.5%) showed an effect of 50% or more. Effects have a minus sign here. The list shows a part of the results.

biological target: human ether-à-go-go-related gene (hERG) potassium channel (human, UniProt Q12809); assay: primary screen, population patch clamp on CHO cells stably expressing hERG
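Also: peak tail current of the secondary pulse compared with the same well before compound.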

Chain of human ether-à-go-go-related gene (hERG) potassium channel (Q12809 whole entry, looked up): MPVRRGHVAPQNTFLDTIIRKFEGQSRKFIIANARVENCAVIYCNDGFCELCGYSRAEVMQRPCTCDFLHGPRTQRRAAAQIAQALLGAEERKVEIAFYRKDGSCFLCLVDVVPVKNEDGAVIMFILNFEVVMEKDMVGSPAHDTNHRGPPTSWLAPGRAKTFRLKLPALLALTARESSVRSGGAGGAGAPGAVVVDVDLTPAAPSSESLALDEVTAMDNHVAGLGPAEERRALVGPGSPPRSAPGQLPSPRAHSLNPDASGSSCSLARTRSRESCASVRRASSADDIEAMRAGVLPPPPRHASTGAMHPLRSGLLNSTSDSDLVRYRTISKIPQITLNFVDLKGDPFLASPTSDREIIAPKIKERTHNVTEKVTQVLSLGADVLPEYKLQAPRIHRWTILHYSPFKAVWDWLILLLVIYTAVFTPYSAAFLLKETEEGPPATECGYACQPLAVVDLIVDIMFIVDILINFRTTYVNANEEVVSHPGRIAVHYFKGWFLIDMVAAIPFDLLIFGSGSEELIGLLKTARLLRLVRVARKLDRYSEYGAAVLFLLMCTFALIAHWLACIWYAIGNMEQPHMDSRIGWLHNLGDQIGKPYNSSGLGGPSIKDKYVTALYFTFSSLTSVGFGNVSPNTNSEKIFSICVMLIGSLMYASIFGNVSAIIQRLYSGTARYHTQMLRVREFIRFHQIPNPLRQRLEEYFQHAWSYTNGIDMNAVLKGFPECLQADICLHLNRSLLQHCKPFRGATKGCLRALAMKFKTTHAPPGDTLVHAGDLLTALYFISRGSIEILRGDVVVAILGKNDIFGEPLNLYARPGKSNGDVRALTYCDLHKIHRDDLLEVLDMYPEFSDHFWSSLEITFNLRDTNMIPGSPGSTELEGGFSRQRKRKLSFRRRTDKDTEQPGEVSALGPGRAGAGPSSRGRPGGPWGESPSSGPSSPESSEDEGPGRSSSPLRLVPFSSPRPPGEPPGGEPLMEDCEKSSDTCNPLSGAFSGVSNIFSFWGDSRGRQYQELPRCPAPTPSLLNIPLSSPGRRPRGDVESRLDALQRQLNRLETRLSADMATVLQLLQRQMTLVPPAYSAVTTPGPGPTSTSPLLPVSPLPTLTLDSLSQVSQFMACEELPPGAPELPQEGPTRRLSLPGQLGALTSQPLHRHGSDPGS

Compound | hERG current change (%, negative = inhibition) at 10uM [%]
CC1CC(C)CN(C(=O)C2CC(=O)N(c3ccc(F)cc3)C2)C1 (stereo not drawn) | -18.7
Cc1ccc(O)c(NC(=O)/C=C/C(=O)O)c1 | 69.3
COc1ccc(CNc2nc(SCC(=O)NCc3ccco3)nc3ccccc23)cc1 | -68.9
O=C(C1CC1)N1CCCC(c2ccc(Cl)cc2)=N1 | 14.6
CCC1CCCCN1C(=O)CCCOc1ccccc1 (stereo not drawn) | -16.4
CCOC(=O)C1CCN(c2ncnc3c2cnn3C)CC1 | 6.3
O=C1N[C@@H](Cc2cn(S(=O)(=O)c3ccc(F)cc3)c3ccccc23)C(=O)N[C@H]1Cc1ccccc1 | 11.2
COc1ccc(CNC(=O)Cn2ccc([N+](=O)[O-])n2)cc1OC | 3.22
O=C(COC(=O)COc1cccc(Br)c1)Nc1ccc(F)cc1F | 9.9
CS(=O)(=O)N1CCCC(C(=O)N2CCc3ccccc3C2)C1 (stereo not drawn) | 3.18
CCOc1ccc(N2CC(NC(=O)c3ccc4ccccc4c3)CC2=O)cc1 (stereo not drawn) | -8.16
COCCN(C(=O)c1ccco1)C(C(=O)NC1CCCC1)c1cccs1 (stereo not drawn) | -7
COc1ccc(CCNC(=O)c2cc(C(C)C)on2)cc1OC | 3.45
CCOC(=O)N1CCC(NC(=O)c2cnn3cccnc23)CC1 | -7.19
Cc1nc2ccccc2nc(C)c1=NOCc1ccc(C#N)cc1 | -8.15
Cc1ccc(/C=C/C(=O)O)cc1S(=O)(=O)NCC1CCCO1 (stereo not drawn) | 11.7
CC(NC(=O)COc1ccccc1)C1COc2ccccc2O1 (stereo not drawn) | -18.9
NC(=O)c1ccsc1NC(=O)CSc1nnc2ccccn12 | 12.5
N#CC1(NC(=O)COC(=O)c2cc(=O)[nH]c3ccccc23)CCCCC1 | 14
CC(C)(C)NC(=O)C1CCN(C(=O)c2ccc(Br)cc2)CC1 | -8.88
COc1cc(C(=O)Nc2ccc3ccccc3c2)cc(OC)c1OC | -1.75
COC(=O)N(C)CCCC1(C)C(=O)N(C)c2ccc(O)cc21 (stereo not drawn) | -10.6
C[C@@H]1CC[C@@]2(O[C@H](CCO)C[C@H](O)[C@H]2O)O1 | 23.2

Compound | hERG current change (%, negative = inhibition) at 10uM [%]
CSc1ccccc1OCc1cc(C(=O)N(C)C2CCCc3ccccc32)no1 (stereo not drawn) | 11.1
COC(=O)[C@@H](NC(=O)Nc1ccc(S(N)(=O)=O)cc1)C(C)C | -1.44
CCn1cc(CN2CCC(n3nccc3NC(=O)c3ccccc3C)CC2)cn1 | -58.2
O=C(c1ccc(-n2cnnn2)cc1)N(C1CCCCC1)C1CCCCC1 | 4.33
COc1ccc(NC(=S)N(Cc2cccnc2)Cc2cc3cc(OC)c(OC)cc3[nH]c2=O)cc1 | 16.2
CN(C)CCNC(=O)c1cccc(S(=O)(=O)Nc2ccccc2F)c1 | 12.5
CN(C)c1ccc(-c2nnn(CC(=O)Nc3ccccc3N3CCOCC3)n2)cc1 | -15.1
NS(=O)(=O)c1ccc(Nc2ccc3nonc3c2[N+](=O)[O-])cc1 | 9.07
CC(=O)c1ccc(OC(NC(=O)c2ccco2)C(Cl)(Cl)Cl)cc1 (stereo not drawn) | -7.17
O=C(Nc1ccc(F)cc1)C1CCCN1S(=O)(=O)c1cccc2nsnc12 (stereo not drawn) | -29.6
CC(Sc1nnnn1C)C(=O)Nc1ccccc1 (stereo not drawn) | 7.29
CC1(C)C(=O)Nc2ccccc2N1C(=O)CSc1nnc2c(Cl)cc(Cl)cn12 | -1.93
N#Cc1ccc(Oc2cccc(C(=O)O)c2)cc1C#N | 1.48
CSc1cccc(CNC(=O)CC2C(=O)NCCN2CC(C)(C)C)c1 (stereo not drawn) | 2.77
O=C(CSc1nc(Nc2ccccc2)nc(N2CCOCC2)n1)N1CCc2ccccc21 | -1.62
Cc1cc(C)n2nc(CCCCc3nc4nc(C)cc(C)n4n3)nc2n1 | 9.77
CS(=O)(=O)N1CCC(C(=O)Nc2ccccc2Sc2ccccc2)CC1 | -32.2
O=C(/C=C/c1cccc([N+](=O)[O-])c1)NCC1CCCO1 (stereo not drawn) | -7.23
O=C(CSc1ccc(Cl)cc1)NC1CCCC1 | 4.47
Cc1nc(-c2ccc3c(c2)OCCCO3)cs1 | 4.21
N#Cc1ccc(Oc2nc(C(N)=O)cc(-c3ccccc3)n2)cc1 | -11.3
CCOc1cc2[nH]c(=O)n(CCCN3CCCC3=O)c(=O)c2cc1OCC | -6.1
CCOC(=O)N1CCN(CC(O)COCc2ccccc2)CC1.Cl (stereo not drawn) | -4.06

Compound | hERG current change (%, negative = inhibition) at 10uM [%]
COc1cc(/C=C2\SC(=S)N(Nc3ncc(C(F)(F)F)cc3Cl)C2=O)ccc1O | 5.23
O=C1N(Cc2cccc(Cl)c2)C[C@@H]2C[C@@H](c3ccc4nonc4c3)N3CCC[C@@]123 | -55.1
CC1(C)NC(=O)N(CCOc2ccc([N+](=O)[O-])cc2)C1=O | -37.6
CC(=O)c1cccc(NC(=S)NC(=O)c2ccc(Cl)cc2)c1 | -23.6
CCOc1ccc(CCNC(=O)c2cccnc2N2CCCC2)cc1OCC | 13.2
O=S(=O)(Cc1ccc(Cl)cc1)NCc1ccc2c(c1)OCO2 | 1.12
O=C(CSc1n[nH]c(-c2ccc(Cl)cc2Cl)n1)Nc1ccccn1 | 3.25
Cc1ccc2c(c1)c(N=NC(N)=S)c(O)n2Cc1ccccc1 | -1.71
COc1cccc(/C=N/N(C)C2=NS(=O)(=O)c3ccccc32)c1O | 11.8
COc1ccccc1-c1c(C)nn2c(-c3ccccc3)cc(C)nc12 | 3.05
Cc1ccccc1C(=O)NC1CCN(CC(=O)NCc2cccs2)CC1 | 6.14
CCOC(=O)C1=C(COC(=O)CC(C)c2ccccc2)NC(=O)NC1C (stereo not drawn) | -17.8
Cc1ccc([N+](=O)[O-])c(NC(=O)COC(=O)C2CC3CCCC(C2)C3=O)c1C (stereo not drawn) | 13.8
Cn1c(=O)oc2cc(S(=O)(=O)N3CCC(C(=O)Nc4ccc(OC(F)(F)F)cc4)CC3)ccc21 | -6.62
COc1ccc(C(=O)N2CCNC(=O)C2CC(=O)Nc2ccc(C)c(C)c2)cc1 (stereo not drawn) | 6.3
Cc1ccc(C(=O)CC2SC(N)=NC2=O)cc1 (stereo not drawn) | 2.21
NS(=O)(=O)c1ccc(-c2ccc(C=NC3CCS(=O)(=O)C3)o2)cc1 (stereo not drawn) | 6.63
O=[N+]([O-])c1cccc(S(=O)(=O)NCCc2ccccc2)c1 | 0.681
CCc1cc[n+](-c2nc3ccccc3nc2[N-]S(=O)(=O)c2ccc(Br)s2)cc1 | -37
CCN(CC)C(=O)COC(=O)c1ccc(O)cc1 | 7.43
CCC(CC)NC(=O)Nc1ccccc1C(F)(F)F | -2.77
O=C(NCc1nc2ccccc2[nH]1)c1ccco1 | 11.2
CC(NC(=O)c1ccccc1NC(=O)c1ccco1)C(=O)O (stereo not drawn) | -1.62

Compound | hERG current change (%, negative = inhibition) at 10uM [%]
CC(=O)c1ccc(Oc2cc(C)nc(-n3nc(C)cc3C)n2)cc1 | -59.9
O=C(CNC(=O)c1ccc(N2C(=O)c3ccccc3C2=O)cc1)OCC(=O)c1ccccc1 | 17.3
CCOC(=O)/C=C1\SCC(=O)N1CC(=O)Nc1cccc(F)c1 | -7.96
COC(=O)CC1COc2ccccc2N1C(=O)c1ccc(C(C)(C)C)cc1 (stereo not drawn) | -0.791
Cc1nc2nc(SCC(=O)N3CCOCC3)nn2c(C)c1Cc1ccccc1 | -12.1
COC(=O)c1cn(Cc2c(C)cc(C)cc2C)nn1 | -4.66
Cc1cc(C)[n+](Cc2ccccc2)cc1C(N)=O.[Cl-] | 16.6
Cc1nc(C)c(C(=O)C2=C(O)C(=O)N(CCN3CCOCC3)C2c2ccco2)s1 (stereo not drawn) | 11.2
Cc1ccc(N/C(N)=N/c2nc(C(F)(F)F)cc(C(F)(F)F)n2)cc1 | 18.9
CCOC(=O)CN1C(=O)C(=O)N(Cc2ccccc2F)C1=O | 13.4
CC(=O)Nc1ccc(NC(=O)COC(=O)c2ccc(C)s2)cc1 | 8.92
Cc1nc2ccccc2c(=O)n1-c1ccc(-c2ccccc2)cc1 | 2.92
O=C(Cn1nnc2ccccc21)N1CCCCC1 | 2.94
O=C1CCC([N+](=O)[O-])C(c2ccccc2Br)N1 (stereo not drawn) | 24.9
CCN(C(=S)Nc1cccnc1)c1ccccc1 | 4.09
CCOc1ccccc1-n1c(O)c(C=Nc2c(C)n(C)n(-c3ccccc3)c2=O)c(=O)[nH]c1=O | 0.307
CCCCn1c(N)c(N(CC(C)C)C(=O)CCCc2cccs2)c(=O)[nH]c1=O | -9.44
CCOC(=O)C1(Cc2cccc(F)c2)CCN(Cc2cn(CC)nc2C)CC1 | -38
CC(=O)c1c(C)[nH]c(C(=O)Nc2nc(C)cs2)c1C | -14.5
CSc1nnc(NC(=O)c2ccc(S(=O)(=O)N(C)C)cc2)s1 | 18.2
COc1ccc(C[C@H]2CN3C(=NC[C@@H]3C(C)C)N2C[C@H](C)NC(=O)c2ccc(C)c(Br)c2)cc1 | -74.5
